Assay [1] has as its target HRgpA-6H (Porphyromonas gingivalis) (UniProt P28784). Put plainly: ELISA on coated HRgpA-6H, OD relative to parental Fab. Background: An ELISA detects its analyte on a solid surface through an enzyme-linked reagent.
Assay [2] has the same target. As to the kind of experiment: ELISA, FASEBA Fab supernatant on coated HRgpA-6H.
For assay [3] the target is unchanged. Put plainly: ELISA, coated HRgpA-6H.
The target is the same in assay [4]. Put plainly: ELISA, FASEBA screening, coated HRgpA-6H; variant OD over parental WT Fab OD.
Assay [5] shares this target. Put plainly: ELISA, FASEBA screening, coated HRgpA-6H 0.0625 ug/ml.

Not every entry of the source has a single result; some have several. Only these are listed. There may be further records. Values given together read as repeated measurements on other runs, samples or individuals; a mean can stand among them.

B1: KB001 mouse Fab variant VL A56H (Fab, V domains shown)
VH: EVQLKQSGPGLVAPSQSLSITCTVSGFSLSIYSVHWVRQPPGKGLEWLGMIWGGGSSDYNSALKSRLSISKDNSKSQVFLKMNSLQTDDTAMYYCARNGNFYAMDYWGQGTSVTVSS
VL: QIVLTQSPAIMSASLGERVTMTCTASSSVSSSFLHWYQQKPGSSPQLWIYSTSNLHSGVPARFSGSGSGTSYSLTISSMEAEDAATYYCHQYHHSPYIYTFGGGTKLEIK
On to B1, for which, in assay [1], the Ratio OD(Variant)/OD(WT) is 0.863, 0.857, 0.931, 0.906 fold [lines of one column]. In addition, in assay [2], the OD450 nm was 0.704, 0.699, 0.759, 0.739 [lines of one column].

B2: KB001 mouse Fab VH A62T (Fab, V domains shown)
VH: EVQLKQSGPGLVAPSQSLSITCTVSGFSLSIYSVHWVRQPPGKGLEWLGMIWGGGSSDYNSTLKSRLSISKDNSKSQVFLKMNSLQTDDTAMYYCARNGNFYAMDYWGQGTSVTVSS
VL: QIVLTQSPAIMSASLGERVTMTCTASSSVSSSFLHWYQQKPGSSPQLWIYSTSNLASGVPARFSGSGSGTSYSLTISSMEAEDAATYYCHQYHHSPYIYTFGGGTKLEIK
As to B2, in assay [3], the OD450 nm was 0.839, 0.812, 0.782, 0.827, 0.856 [lines of one column] and the Ratio OD(Variant)/OD(WT) was 0.96, 0.929, 0.895, 0.946, 0.979 [lines of one column].

B3: KB001 mouse Fab VH S56V (Fab, V domains shown)
VH: EVQLKQSGPGLVAPSQSLSITCTVSGFSLSIYSVHWVRQPPGKGLEWLGMIWGGGVSDYNSALKSRLSISKDNSKSQVFLKMNSLQTDDTAMYYCARNGNFYAMDYWGQGTSVTVSS
VL: QIVLTQSPAIMSASLGERVTMTCTASSSVSSSFLHWYQQKPGSSPQLWIYSTSNLASGVPARFSGSGSGTSYSLTISSMEAEDAATYYCHQYHHSPYIYTFGGGTKLEIK
For B3, in assay [3], the OD450 nm was 0.761, 0.775, 0.777, 0.76 [lines of one column] and the Ratio OD(Variant)/OD(WT) was 0.865, 0.881, 0.883, 0.864 [lines of one column].

B4: KB001 mouse Fab variant VL T100F (Fab, V domains shown)
VH: EVQLKQSGPGLVAPSQSLSITCTVSGFSLSIYSVHWVRQPPGKGLEWLGMIWGGGSSDYNSALKSRLSISKDNSKSQVFLKMNSLQTDDTAMYYCARNGNFYAMDYWGQGTSVTVSS
VL: QIVLTQSPAIMSASLGERVTMTCTASSSVSSSFLHWYQQKPGSSPQLWIYSTSNLASGVPARFSGSGSGTSYSLTISSMEAEDAATYYCHQYHHSPYIYFFGGGTKLEIK
Take B4: the Ratio OD(Variant)/OD(WT) in assay [1] was 0.944, 0.94, 0.917, 0.988 fold [lines of one column]. In assay [2], the OD450 nm is 0.494, 0.492, 0.48, 0.517 [lines of one column].

B5: KB001 mouse Fab VH S56Q (Fab, V domains shown)
VH: EVQLKQSGPGLVAPSQSLSITCTVSGFSLSIYSVHWVRQPPGKGLEWLGMIWGGGQSDYNSALKSRLSISKDNSKSQVFLKMNSLQTDDTAMYYCARNGNFYAMDYWGQGTSVTVSS
VL: QIVLTQSPAIMSASLGERVTMTCTASSSVSSSFLHWYQQKPGSSPQLWIYSTSNLASGVPARFSGSGSGTSYSLTISSMEAEDAATYYCHQYHHSPYIYTFGGGTKLEIK
In the case of B5, in assay [3], the OD450 nm is 0.718, 0.764, 0.728, 0.775 [lines of one column] and the Ratio OD(Variant)/OD(WT) was 0.816, 0.869, 0.828, 0.881 [lines of one column].

B6: KB001 mouse Fab variant VL A56Y (Fab, V domains shown)
VH: EVQLKQSGPGLVAPSQSLSITCTVSGFSLSIYSVHWVRQPPGKGLEWLGMIWGGGSSDYNSALKSRLSISKDNSKSQVFLKMNSLQTDDTAMYYCARNGNFYAMDYWGQGTSVTVSS
VL: QIVLTQSPAIMSASLGERVTMTCTASSSVSSSFLHWYQQKPGSSPQLWIYSTSNLYSGVPARFSGSGSGTSYSLTISSMEAEDAATYYCHQYHHSPYIYTFGGGTKLEIK
With B6, the Ratio OD(Variant)/OD(WT) in assay [1] was 0.825, 0.873, 0.89, 0.853, 0.856 fold [lines of one column]. Further, in assay [2], the OD450 nm is 0.673, 0.712, 0.726, 0.696, 0.698 [lines of one column].

B7: KB001 parental mouse Fab FASEBA variant VH F101Y (Fab, V domains shown)
VH: EVQLKQSGPGLVAPSQSLSITCTVSGFSLSIYSVHWVRQPPGKGLEWLGMIWGGGSSDYNSALKSRLSISKDNSKSQVFLKMNSLQTDDTAMYYCARNGNYYAMDYWGQGTSVTVSS
VL: QIVLTQSPAIMSASLGERVTMTCTASSSVSSSFLHWYQQKPGSSPQLWIYSTSNLASGVPARFSGSGSGTSYSLTISSMEAEDAATYYCHQYHHSPYIYTFGGGTKLEIK
As to B7, the Ratio OD(Variant)/OD(WT) in assay [4] is 0.815, 0.848, 0.871, 0.842, 0.864 [lines of one column]. Also, in assay [5], the OD450 nm was 0.69, 0.718, 0.738, 0.713, 0.732 [lines of one column].

B8: KB001 mouse Fab variant VL S95K (Fab, V domains shown)
VH: EVQLKQSGPGLVAPSQSLSITCTVSGFSLSIYSVHWVRQPPGKGLEWLGMIWGGGSSDYNSALKSRLSISKDNSKSQVFLKMNSLQTDDTAMYYCARNGNFYAMDYWGQGTSVTVSS
VL: QIVLTQSPAIMSASLGERVTMTCTASSSVSSSFLHWYQQKPGSSPQLWIYSTSNLASGVPARFSGSGSGTSYSLTISSMEAEDAATYYCHQYHHKPYIYTFGGGTKLEIK
Take B8: in assay [1], the Ratio OD(Variant)/OD(WT) was 0.916, 0.897, 0.885, 0.86 fold [lines of one column]. Also, the OD450 nm in assay [2] is 0.841, 0.824, 0.813, 0.79 [lines of one column].

B9: KB001 mouse Fab VH S57E (Fab, V domains shown)
VH: EVQLKQSGPGLVAPSQSLSITCTVSGFSLSIYSVHWVRQPPGKGLEWLGMIWGGGSEDYNSALKSRLSISKDNSKSQVFLKMNSLQTDDTAMYYCARNGNFYAMDYWGQGTSVTVSS
VL: QIVLTQSPAIMSASLGERVTMTCTASSSVSSSFLHWYQQKPGSSPQLWIYSTSNLASGVPARFSGSGSGTSYSLTISSMEAEDAATYYCHQYHHSPYIYTFGGGTKLEIK
As for B9, in assay [3], the OD450 nm is 0.777, 0.781, 0.723, 0.769 [lines of one column] and the Ratio OD(Variant)/OD(WT) was 0.883, 0.888, 0.822, 0.874 [lines of one column].

B10: KB001 parental mouse Fab FASEBA variant VH N100D (Fab, V domains shown)
VH: EVQLKQSGPGLVAPSQSLSITCTVSGFSLSIYSVHWVRQPPGKGLEWLGMIWGGGSSDYNSALKSRLSISKDNSKSQVFLKMNSLQTDDTAMYYCARNGDFYAMDYWGQGTSVTVSS
VL: QIVLTQSPAIMSASLGERVTMTCTASSSVSSSFLHWYQQKPGSSPQLWIYSTSNLASGVPARFSGSGSGTSYSLTISSMEAEDAATYYCHQYHHSPYIYTFGGGTKLEIK
B10: the Ratio OD(Variant)/OD(WT) in assay [4] was 0.968, 0.926, 0.993, 0.994 [lines of one column]. Moreover, the OD450 nm in assay [5] is 0.82, 0.784, 0.841, 0.842 [lines of one column].

B11: KB001 mouse Fab VH Y59L (Fab, V domains shown)
VH: EVQLKQSGPGLVAPSQSLSITCTVSGFSLSIYSVHWVRQPPGKGLEWLGMIWGGGSSDLNSALKSRLSISKDNSKSQVFLKMNSLQTDDTAMYYCARNGNFYAMDYWGQGTSVTVSS
VL: QIVLTQSPAIMSASLGERVTMTCTASSSVSSSFLHWYQQKPGSSPQLWIYSTSNLASGVPARFSGSGSGTSYSLTISSMEAEDAATYYCHQYHHSPYIYTFGGGTKLEIK
With B11, in assay [3], the OD450 nm was 0.758, 0.775, 0.752, 0.691 [lines of one column] and the Ratio OD(Variant)/OD(WT) was 0.958, 0.98, 0.951, 0.874 [lines of one column].

B12: KB001 mouse Fab VH S57P (Fab, V domains shown)
VH: EVQLKQSGPGLVAPSQSLSITCTVSGFSLSIYSVHWVRQPPGKGLEWLGMIWGGGSPDYNSALKSRLSISKDNSKSQVFLKMNSLQTDDTAMYYCARNGNFYAMDYWGQGTSVTVSS
VL: QIVLTQSPAIMSASLGERVTMTCTASSSVSSSFLHWYQQKPGSSPQLWIYSTSNLASGVPARFSGSGSGTSYSLTISSMEAEDAATYYCHQYHHSPYIYTFGGGTKLEIK
B12: in assay [3], the OD450 nm was 0.789, 0.801, 0.747, 0.724 [lines of one column] and the Ratio OD(Variant)/OD(WT) is 0.897, 0.911, 0.849, 0.823 [lines of one column].

B13: KB001 parental mouse Fab FASEBA variant VH Y106E (Fab, V domains shown)
VH: EVQLKQSGPGLVAPSQSLSITCTVSGFSLSIYSVHWVRQPPGKGLEWLGMIWGGGSSDYNSALKSRLSISKDNSKSQVFLKMNSLQTDDTAMYYCARNGNFYAMDEWGQGTSVTVSS
VL: QIVLTQSPAIMSASLGERVTMTCTASSSVSSSFLHWYQQKPGSSPQLWIYSTSNLASGVPARFSGSGSGTSYSLTISSMEAEDAATYYCHQYHHSPYIYTFGGGTKLEIK
B13: in assay [4], the Ratio OD(Variant)/OD(WT) was 0.893, 0.917, 0.938, 0.892 [lines of one column]. The OD450 nm in assay [5] is 0.687, 0.705, 0.721, 0.686 [lines of one column].

These data come from patent publication US20240400654A1.
